Screen size: about 150,000 compounds; about 540 (0.36%) showed an effect of 50% or more. The list shows a part of the results.

In the assay the test system is Plasmodium falciparum. Description: Primary screen in NF54 nanoGlo assay, in single point, at 2uM, 72h; a lower Z score goes with more inhibition. It is filed as functional, Erythrocyte. The settings on record: timepoint 72 hour.
As to `O=C1C2C3C=CC(C3=C3CCCCC3)C2C(=O)N1c1ccccc1C(F)(F)F` (stereo unspecified), the “% Inhibition” value is recorded as 5% and the Z score is -0.62.
As for `CCN(CC)c1n[nH]c(NCc2cnn(CC)c2)c1C#N`, the “% Inhibition” value is given as -7% and the Z score turned out to be 1.26.
As to `Cc1ccc(C(=O)Nc2ccc(-n3cncn3)nc2)s1`, the “% Inhibition” value is recorded as -16% and the Z score is recorded as 1.85.
Turning to `Cc1nc(C2(C)CCN(C(=O)CCC(=O)n3nc(C)c4ccccc43)CC2)no1`, the “% Inhibition” value is given as -5% and the Z score is 0.65.
On the same counts, the results for `COc1cccc(CN2CCC3(CCC(=O)N(CCc4c[nH]cn4)C3)CC2)c1` are -1% and 0.14.
For `Cc1ccccc1CC(=O)N1CCC[C@H](c2nc(O)c3nnn(Cc4ccc(F)cc4)c3n2)C1`, the “% Inhibition” value is on record as -15% and the Z score was 1.32.
For the compound `CCOc1ccc(-c2nn3c(nc2=O)-c2ccccc2N[C@@H]3C(=O)O)cc1`, the “% Inhibition” value stood at 0% and the Z score is -0.03.
As to `OCc1ccc(Cl)c(NCc2csc(-c3ccccn3)n2)c1`, the “% Inhibition” value came to 2% and the Z score is listed as -0.27.
Regarding `O=C(Cc1cncs1)N1CCC[C@@H]1CF`, the “% Inhibition” value is listed as -3% and the Z score amounted to 0.49.
Taken in the same sequence, the figures for `Cn1cc(C(NC(=O)N2CCOC(CO)C2)C(F)(F)F)cn1` (stereo unspecified) were -13% and 1.69.
For `COc1ccc(S(=O)(=O)N2CCN(c3ccnc(N4CCCC4)n3)CC2)cc1`, the “% Inhibition” value is listed as -10% and the Z score is on record as 1.78.
On the same counts, the results for `CCc1c(C)nc(-c2cccc(C)c2)nc1N1CCN(S(=O)(=O)c2ccc(C)cc2)CC1` are -16% and 1.61.
Taken in the same sequence, the figures for `COCCn1cnnc1CCn1cnc(-c2ccccc2)c1-c1c[nH]c(C)n1` were 0% and 0.05.
For `CC1CCCC(NS(=O)(=O)Cc2ccccc2)C1C` (stereo unspecified), the “% Inhibition” value is -7% and the Z score stood at 0.9.
Taken in the same sequence, the figures for `COc1cccc(CN(Cc2ncc(C3OCCO3)s2)C2CCC(O)CC2)c1` (stereo unspecified) were -7% and 0.61.
Taken in the same sequence, the figures for `COc1nc(-c2ccc(C(=O)N3CCC(=O)NC[C@@H]3C)cc2)ncc1F` were -4% and 0.41.
`COc1ccc(C(=O)N2C[C@@H](C(=O)N3CCCC3)[C@H](c3cccnc3)C2)cc1`: the “% Inhibition” value is listed as -1% and the Z score is 0.14.
On the same counts, the results for `CC(=O)c1ccc(N2CCOCC2)c(C[C@@H]2COc3ccccc3C2)c1` are -14% and 2.42.
Taken in the same sequence, the figures for `O=C(NC1CC1c1cccc(F)c1)NC1CCCC2OCCC12` (stereo unspecified) were -3% and 0.25.
With `CS(=O)(=O)N(CC(=O)NC1CC2CCC1C2)c1ccc(Oc2ccccc2)cc1` (stereo unspecified), the “% Inhibition” value was 7% and the Z score is listed as -1.
Taken in the same sequence, the figures for `CCc1nc(N2C[C@H](C)[C@@](O)(C3CC3)C2)ncc1C` were -24% and 2.15.
Taken in the same sequence, the figures for `Cc1cccc(CNC(=O)[C@@H]2CCCO2)c1Br` were -5% and 0.52.
On the same counts, the results for `Cc1ccc(NC(=O)Cn2cc(S(=O)(=O)N3CCCCCC3)ccc2=O)c(C)c1` are -2% and 0.3.

(Values after ChEMBL document CHEMBL4888484, “Replenishing the malaria drug discovery pipeline: Screening and hit evaluation of the MMV Hit Generation Library 1 (HGL1) against asexual blood stage Plasmodium falciparum ,using a nano luciferase reporter read-out” (2022).)
